# Several values for one entry are separate records, joined by “and”; a condition that tells them apart may be missing. Equal values may be shown once.
# Legend:
# Assay type in all cases: binding
# LC3A [1] = biological target: T1, LC3A (Homo sapiens, UniProt Q9H492); assay: Spectral shift assay (Dianthus), cysteine-labelled protein; settings: Repeat 1 and Repeat 2
# Protocol: Affinity determination using spectral shift mode on Dianthus: To determine dissociation constants, the Dianthus instrument (NanoTemper Technologies GmbH, Germany) was used to monitor molecular interactions. […] Protein was labelled with RED-maleimide 2nd Generation (cat# MO-L014; NanoTemper Technologies GmbH). Labeling was carried out following the manufacturer protocol, using a 3:1 ratio dye:protein. […] Protein was purified in 30 mM HEPES, 100 mM NaCl, 0.05% Tween, pH 7.5. […] Measurements were performed in spectral shift mode with an LED excitation power of 100%. Data were analyzed using the DI.Screening Analysis Software (v.2.0.4) (NanoTemper Technologies GmbH, Germany) and quality criteria values including Δ Ratio, Signal-to-Noise-Ratio, Fit Saturation and KD values were determined.
# LC3C = LC3C (Homo sapiens, UniProt Q9BXW4); assay: FP assay with Cy5-labelled p62 LIR tracer (protein titration and tracer displacement); settings: two replicate columns per compound
# GABARAPL1 = GABARAPL1 (Homo sapiens, UniProt Q9H0R8); assay: as above; settings: two replicate columns per compound
# LC3A [2] = biological target: T1, LC3A; assay: as above; settings: two replicate columns per compound
# LC3B = LC3B (Homo sapiens, UniProt Q9GZQ8); assay: as above; settings: two replicate columns per compound
# [3] = compound 15.2588 nM titrated against LC3A
# [4] = compound 30.5176 nM titrated against LC3A
# [5] = compound 61.0352 nM titrated against LC3A
# [6] = compound 122.07 nM titrated against LC3A
# [7] = compound 244.141 nM titrated against LC3A
# [8] = compound 488.281 nM titrated against LC3A
# [9] = compound 976.562 nM titrated against LC3A
# [10] = compound 1953.12 nM titrated against LC3A
# [11] = compound 3906.25 nM titrated against LC3A
# [12] = compound 7812.5 nM titrated against LC3A
# [13] = compound 15625 nM titrated against LC3A
# [14] = compound 31250 nM titrated against LC3A
# [15] = compound 62500 nM titrated against LC3A
# [16] = compound 125000 nM titrated against LC3A
# [17] = compound 250000 nM titrated against LC3A
# [18] = compound 500000 nM titrated against LC3A
# [19] = log10 concentration [M] -3.82391
# [20] = log10 concentration [M] -4.1549
# [21] = log10 concentration [M] -4.60206
# [22] = log10 concentration [M] -5.30103
# [23] = log10 concentration [M] -5.69897
# [24] = log10 concentration [M] -6.22185
# [25] = log10 concentration [M] -6.69897
# [26] = log10 concentration [M] -7.30103
# [27] = log10 concentration [M] -7.79588
# [28] = log10 concentration [M] -8.08092
# Chain of LC3C (Q9BXW4 1-126): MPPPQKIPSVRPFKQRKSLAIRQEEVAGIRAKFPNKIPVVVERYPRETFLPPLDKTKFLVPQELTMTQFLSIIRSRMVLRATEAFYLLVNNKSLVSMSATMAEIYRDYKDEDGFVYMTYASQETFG
# Chain of GABARAPL1 (Q9H0R8 whole entry): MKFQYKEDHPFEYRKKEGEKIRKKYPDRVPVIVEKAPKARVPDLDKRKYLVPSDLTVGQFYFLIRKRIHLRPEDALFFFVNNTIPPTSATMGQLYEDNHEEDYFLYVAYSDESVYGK
smiles,measurement,setting,value
O=C1CC(c2ccc(Cl)c(Cl)c2)CC(=O)C1=CNCCN1CCNCC1 (stereo not drawn) [Cov-3 (7)],Initial Fluorescence,LC3A [1]; [3],10979.177 and 9319.116
same,Ratio (spectral shift),LC3A [1]; [3],0.9042 and 0.9182
same,Initial Fluorescence,LC3A [1]; [4],11396.190 and 9959.509
same,Ratio (spectral shift),LC3A [1]; [4],0.9112 and 0.9028
same,Initial Fluorescence,LC3A [1]; [5],11631.822 and 10445.170
same,Ratio (spectral shift),LC3A [1]; [5],0.9016 and 0.9158
same,Initial Fluorescence,LC3A [1]; [6],11488.392 and 10144.638
same,Ratio (spectral shift),LC3A [1]; [6],0.8957 and 0.9295
same,Initial Fluorescence,LC3A [1]; [7],11928.102 and 11029.462
same,Ratio (spectral shift),LC3A [1]; [7],0.8991 and 0.9219
same,Initial Fluorescence,LC3A [1]; [8],11722.134 and 10040.412
same,Ratio (spectral shift),LC3A [1]; [8],0.8923 and 0.9025
same,Initial Fluorescence,LC3A [1]; [9],12214.168 and 10715.957
same,Ratio (spectral shift),LC3A [1]; [9],0.8883 and 0.9059
same,Initial Fluorescence,LC3A [1]; [10],12022.579 and 10824.652
same,Ratio (spectral shift),LC3A [1]; [10],0.8861 and 0.9018
same,Initial Fluorescence,LC3A [1]; [11],12371.707 and 12043.845
same,Ratio (spectral shift),LC3A [1]; [11],0.8871 and 0.8914
same,Initial Fluorescence,LC3A [1]; [12],11958.680 and 12575.001
same,Ratio (spectral shift),LC3A [1]; [12],0.8876 and 0.8953
same,Initial Fluorescence,LC3A [1]; [13],13372.464 and 11099.815
same,Ratio (spectral shift),LC3A [1]; [13],0.8745 and 0.8787
same,Initial Fluorescence,LC3A [1]; [14],12231.151 and 11520.212
same,Ratio (spectral shift),LC3A [1]; [14],0.8882 and 0.8762
same,Initial Fluorescence,LC3A [1]; [15],12678.003 and 12242.451
same,Ratio (spectral shift),LC3A [1]; [15],0.869 and 0.8661
same,Initial Fluorescence,LC3A [1]; [16],12083.175 and 12172.338
same,Ratio (spectral shift),LC3A [1]; [16],0.865 and 0.8622
same,Initial Fluorescence,LC3A [1]; [17],12437.239 and 12220.100
same,Ratio (spectral shift),LC3A [1]; [17],0.8569 and 0.8648
same,Initial Fluorescence,LC3A [1]; [18],13363.896 and 12184.344
same,Ratio (spectral shift),LC3A [1]; [18],0.865 and 0.8788
Cc1ccc(C)c(S(=O)(=O)Nc2cc(SCC(=O)O)c(O)c3ccccc23)c1 [compound 8],"compound titration LC3C (displacement curve, FP signal)",LC3C; [19],20 and 19.8
same,"compound titration LC3C (displacement curve, FP signal)",LC3C; [20],84.2 and 91.2
same,"compound titration LC3C (displacement curve, FP signal)",LC3C; [21],92 and 99.6
same,"compound titration LC3C (displacement curve, FP signal)",LC3C; log10 concentration [M] -5,93.8 and 99.2
same,"compound titration LC3C (displacement curve, FP signal)",LC3C; [22],94.2 and 97.8
same,"compound titration LC3C (displacement curve, FP signal)",LC3C; [23],88.2 and 89.8
same,"compound titration LC3C (displacement curve, FP signal)",LC3C; [24],94.6 and 93.4
same,"compound titration LC3C (displacement curve, FP signal)",LC3C; [25],92.8 and 96.4
same,"compound titration LC3C (displacement curve, FP signal)",LC3C; [26],100.4 and 98.2
same,"compound titration LC3C (displacement curve, FP signal)",LC3C; [27],91.2 and 94.2
same,"compound titration GABARAPL1 (displacement curve, FP signal)",GABARAPL1; [19],15.1429 and 17.8571
same,"compound titration GABARAPL1 (displacement curve, FP signal)",GABARAPL1; [20],76.1429 and 73.7143
same,"compound titration GABARAPL1 (displacement curve, FP signal)",GABARAPL1; [21],94.7143 and 100
same,"compound titration GABARAPL1 (displacement curve, FP signal)",GABARAPL1; log10 concentration [M] -5,98.8571 and 99.1429
CC(C)c1ccc(S(=O)(=O)Nc2cc(SCC(=O)O)c(O)c3ccccc23)cc1 [compound 9],"compound titration LC3A (displacement curve, FP signal)",LC3A [2]; [19],77.1053 and 92.8947
same,"compound titration LC3A (displacement curve, FP signal)",LC3A [2]; [20],90 and 97.6316
same,"compound titration LC3A (displacement curve, FP signal)",LC3A [2]; [21],90.2632 and 101.316
same,"compound titration LC3A (displacement curve, FP signal)",LC3A [2]; log10 concentration [M] -5,93.9474 and 102.105
same,"compound titration LC3A (displacement curve, FP signal)",LC3A [2]; [22],96.5789 and 101.316
same,"compound titration LC3A (displacement curve, FP signal)",LC3A [2]; [23],95.2632 and 96.0526
same,"compound titration LC3A (displacement curve, FP signal)",LC3A [2]; [24],94.4737 and 102.632
same,"compound titration LC3A (displacement curve, FP signal)",LC3A [2]; [25],97.8947 and 102.105
same,"compound titration LC3A (displacement curve, FP signal)",LC3A [2]; [26],104.737 and 100.526
same,"compound titration LC3A (displacement curve, FP signal)",LC3A [2]; [27],103.947 and 95.7895
same,"compound titration LC3A (displacement curve, FP signal)",LC3A [2]; [28],98.6842 and 102.368
same,"compound titration LC3B (displacement curve, FP signal)",LC3B; [19],61.3158 and 76.8421
same,"compound titration LC3B (displacement curve, FP signal)",LC3B; [20],89.2105 and 97.1053
same,"compound titration LC3B (displacement curve, FP signal)",LC3B; [21],94.4737 and 99.2105
same,"compound titration LC3B (displacement curve, FP signal)",LC3B; log10 concentration [M] -5,99.2105 and 100.263
same,"compound titration LC3B (displacement curve, FP signal)",LC3B; [22],98.1579 and 96.3158
same,"compound titration LC3B (displacement curve, FP signal)",LC3B; [23],92.8947 and 95
same,"compound titration LC3B (displacement curve, FP signal)",LC3B; [24],96.8421 and 97.3684
same,"compound titration LC3B (displacement curve, FP signal)",LC3B; [25],100.789 and 95.2632
same,"compound titration LC3B (displacement curve, FP signal)",LC3B; [26],94.7368 and 102.368
same,"compound titration LC3B (displacement curve, FP signal)",LC3B; [27],98.6842 and 95.5263
same,"compound titration LC3B (displacement curve, FP signal)",LC3B; [28],94.2105 and 97.1053
same,"compound titration LC3C (displacement curve, FP signal)",LC3C; [19],17.2 and 19.2
same,"compound titration LC3C (displacement curve, FP signal)",LC3C; [20],66.8 and 75.6
same,"compound titration LC3C (displacement curve, FP signal)",LC3C; [21],93.2 and 97.2
same,"compound titration LC3C (displacement curve, FP signal)",LC3C; log10 concentration [M] -5,92 and 97.2
same,"compound titration LC3C (displacement curve, FP signal)",LC3C; [22],94.2 and 98
same,"compound titration LC3C (displacement curve, FP signal)",LC3C; [23],86.2 and 91.6
same,"compound titration LC3C (displacement curve, FP signal)",LC3C; [24],95 and 94.2
same,"compound titration LC3C (displacement curve, FP signal)",LC3C; [25],98.6
same,"compound titration LC3C (displacement curve, FP signal)",LC3C; [26],94.8 and 94.4
same,"compound titration GABARAPL1 (displacement curve, FP signal)",GABARAPL1; [19],18.1429 and 16.1429
same,"compound titration GABARAPL1 (displacement curve, FP signal)",GABARAPL1; [20],51.7143 and 57.5714
same,"compound titration GABARAPL1 (displacement curve, FP signal)",GABARAPL1; [21],95.1429 and 101.571
same,"compound titration GABARAPL1 (displacement curve, FP signal)",GABARAPL1; log10 concentration [M] -5,95.5714 and 98.8571

# From article PMC11589570, “Critical assessment of LC3/GABARAP ligands used for degrader development and ligandability of LC3/GABARAP binding pockets” (Nature Communications, 2024)
